What all share (experiment): co-IP; endogenous proteins of U2OS lysate (50 mM Tris-HCl pH 7.4, 100 mM NaCl, 1 mM EDTA, 0.2% Triton X-100), 30 min on ice with Benzonase (90 U/ml); 1 mg extract with anti-BRCA1, anti-ADAR2 or anti-SETX antibody or control IgG at 4 °C, protein A Dynabeads, western blot; BRCA1 IP from cells irradiated (1 h after IR) or not
(Immunoblotting shows a protein as a band on a membrane.)

The chains behind the UniProt entries cited, without tags or fusion partners.
UniProt Q7Z333: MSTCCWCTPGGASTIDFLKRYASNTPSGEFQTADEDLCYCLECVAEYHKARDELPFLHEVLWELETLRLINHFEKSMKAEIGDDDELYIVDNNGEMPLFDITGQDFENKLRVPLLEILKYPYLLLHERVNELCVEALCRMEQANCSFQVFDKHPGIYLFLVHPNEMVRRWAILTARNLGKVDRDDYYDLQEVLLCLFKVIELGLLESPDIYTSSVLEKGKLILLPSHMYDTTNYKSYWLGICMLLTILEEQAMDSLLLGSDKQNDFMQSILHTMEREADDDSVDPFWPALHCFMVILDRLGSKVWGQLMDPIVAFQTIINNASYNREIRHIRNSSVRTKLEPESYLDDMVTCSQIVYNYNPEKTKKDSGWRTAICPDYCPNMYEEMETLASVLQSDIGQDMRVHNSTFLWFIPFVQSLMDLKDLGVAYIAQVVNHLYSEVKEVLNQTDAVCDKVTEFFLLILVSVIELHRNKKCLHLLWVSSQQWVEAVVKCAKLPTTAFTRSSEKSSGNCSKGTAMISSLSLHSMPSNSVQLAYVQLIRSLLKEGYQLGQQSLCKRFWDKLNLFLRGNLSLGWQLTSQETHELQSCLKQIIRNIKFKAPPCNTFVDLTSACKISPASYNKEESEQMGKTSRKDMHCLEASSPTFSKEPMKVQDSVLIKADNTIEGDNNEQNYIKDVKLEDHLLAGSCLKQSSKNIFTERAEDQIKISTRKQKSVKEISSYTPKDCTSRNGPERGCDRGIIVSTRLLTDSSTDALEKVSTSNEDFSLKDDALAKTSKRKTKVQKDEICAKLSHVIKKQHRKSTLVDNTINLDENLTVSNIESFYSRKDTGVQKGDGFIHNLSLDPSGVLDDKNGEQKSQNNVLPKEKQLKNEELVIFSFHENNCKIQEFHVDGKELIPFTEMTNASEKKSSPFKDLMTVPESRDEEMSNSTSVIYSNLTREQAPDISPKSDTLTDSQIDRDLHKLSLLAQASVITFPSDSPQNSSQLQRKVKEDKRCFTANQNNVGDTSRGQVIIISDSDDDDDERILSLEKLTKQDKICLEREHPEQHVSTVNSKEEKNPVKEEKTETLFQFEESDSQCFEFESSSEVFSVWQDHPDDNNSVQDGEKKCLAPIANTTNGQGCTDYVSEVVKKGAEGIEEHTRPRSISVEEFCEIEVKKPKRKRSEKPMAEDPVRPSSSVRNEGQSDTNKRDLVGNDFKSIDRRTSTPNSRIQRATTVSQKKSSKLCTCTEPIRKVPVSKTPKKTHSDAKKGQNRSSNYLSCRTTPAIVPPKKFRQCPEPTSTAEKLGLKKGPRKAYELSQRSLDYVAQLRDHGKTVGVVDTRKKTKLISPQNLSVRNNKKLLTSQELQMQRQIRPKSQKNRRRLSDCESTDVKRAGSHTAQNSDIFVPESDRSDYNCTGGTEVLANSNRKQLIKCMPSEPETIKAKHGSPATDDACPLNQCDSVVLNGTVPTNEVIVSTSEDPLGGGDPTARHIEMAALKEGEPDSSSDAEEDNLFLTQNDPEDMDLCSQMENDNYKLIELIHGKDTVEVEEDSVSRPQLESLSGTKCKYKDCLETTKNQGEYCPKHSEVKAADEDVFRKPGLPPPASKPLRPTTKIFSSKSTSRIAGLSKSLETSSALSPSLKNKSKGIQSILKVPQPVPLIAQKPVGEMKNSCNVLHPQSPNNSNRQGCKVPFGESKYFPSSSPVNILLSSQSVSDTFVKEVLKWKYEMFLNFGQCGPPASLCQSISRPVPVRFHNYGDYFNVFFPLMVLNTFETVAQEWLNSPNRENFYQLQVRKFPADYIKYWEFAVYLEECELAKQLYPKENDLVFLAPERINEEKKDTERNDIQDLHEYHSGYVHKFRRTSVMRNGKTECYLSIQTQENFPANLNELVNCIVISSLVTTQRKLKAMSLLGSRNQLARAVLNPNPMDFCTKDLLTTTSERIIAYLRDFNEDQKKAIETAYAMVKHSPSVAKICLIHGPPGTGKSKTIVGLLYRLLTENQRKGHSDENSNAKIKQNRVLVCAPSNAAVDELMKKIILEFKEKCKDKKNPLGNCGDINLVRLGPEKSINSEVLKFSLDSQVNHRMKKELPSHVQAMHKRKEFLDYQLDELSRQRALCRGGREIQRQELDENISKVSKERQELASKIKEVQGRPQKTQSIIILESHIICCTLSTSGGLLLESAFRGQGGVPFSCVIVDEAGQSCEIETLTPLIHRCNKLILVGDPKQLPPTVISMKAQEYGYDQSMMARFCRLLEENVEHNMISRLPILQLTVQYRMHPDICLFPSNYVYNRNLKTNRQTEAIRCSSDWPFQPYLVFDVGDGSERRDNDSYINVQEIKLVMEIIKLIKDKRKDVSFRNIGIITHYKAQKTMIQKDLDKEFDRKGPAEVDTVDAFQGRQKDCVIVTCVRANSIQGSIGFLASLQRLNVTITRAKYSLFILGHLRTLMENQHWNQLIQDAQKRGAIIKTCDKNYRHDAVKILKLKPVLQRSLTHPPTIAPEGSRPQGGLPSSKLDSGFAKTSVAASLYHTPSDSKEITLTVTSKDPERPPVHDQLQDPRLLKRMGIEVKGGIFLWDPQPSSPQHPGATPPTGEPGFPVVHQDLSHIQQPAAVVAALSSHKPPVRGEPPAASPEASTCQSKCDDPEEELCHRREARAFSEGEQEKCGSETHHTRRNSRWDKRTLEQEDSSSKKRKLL
UniProt P38398: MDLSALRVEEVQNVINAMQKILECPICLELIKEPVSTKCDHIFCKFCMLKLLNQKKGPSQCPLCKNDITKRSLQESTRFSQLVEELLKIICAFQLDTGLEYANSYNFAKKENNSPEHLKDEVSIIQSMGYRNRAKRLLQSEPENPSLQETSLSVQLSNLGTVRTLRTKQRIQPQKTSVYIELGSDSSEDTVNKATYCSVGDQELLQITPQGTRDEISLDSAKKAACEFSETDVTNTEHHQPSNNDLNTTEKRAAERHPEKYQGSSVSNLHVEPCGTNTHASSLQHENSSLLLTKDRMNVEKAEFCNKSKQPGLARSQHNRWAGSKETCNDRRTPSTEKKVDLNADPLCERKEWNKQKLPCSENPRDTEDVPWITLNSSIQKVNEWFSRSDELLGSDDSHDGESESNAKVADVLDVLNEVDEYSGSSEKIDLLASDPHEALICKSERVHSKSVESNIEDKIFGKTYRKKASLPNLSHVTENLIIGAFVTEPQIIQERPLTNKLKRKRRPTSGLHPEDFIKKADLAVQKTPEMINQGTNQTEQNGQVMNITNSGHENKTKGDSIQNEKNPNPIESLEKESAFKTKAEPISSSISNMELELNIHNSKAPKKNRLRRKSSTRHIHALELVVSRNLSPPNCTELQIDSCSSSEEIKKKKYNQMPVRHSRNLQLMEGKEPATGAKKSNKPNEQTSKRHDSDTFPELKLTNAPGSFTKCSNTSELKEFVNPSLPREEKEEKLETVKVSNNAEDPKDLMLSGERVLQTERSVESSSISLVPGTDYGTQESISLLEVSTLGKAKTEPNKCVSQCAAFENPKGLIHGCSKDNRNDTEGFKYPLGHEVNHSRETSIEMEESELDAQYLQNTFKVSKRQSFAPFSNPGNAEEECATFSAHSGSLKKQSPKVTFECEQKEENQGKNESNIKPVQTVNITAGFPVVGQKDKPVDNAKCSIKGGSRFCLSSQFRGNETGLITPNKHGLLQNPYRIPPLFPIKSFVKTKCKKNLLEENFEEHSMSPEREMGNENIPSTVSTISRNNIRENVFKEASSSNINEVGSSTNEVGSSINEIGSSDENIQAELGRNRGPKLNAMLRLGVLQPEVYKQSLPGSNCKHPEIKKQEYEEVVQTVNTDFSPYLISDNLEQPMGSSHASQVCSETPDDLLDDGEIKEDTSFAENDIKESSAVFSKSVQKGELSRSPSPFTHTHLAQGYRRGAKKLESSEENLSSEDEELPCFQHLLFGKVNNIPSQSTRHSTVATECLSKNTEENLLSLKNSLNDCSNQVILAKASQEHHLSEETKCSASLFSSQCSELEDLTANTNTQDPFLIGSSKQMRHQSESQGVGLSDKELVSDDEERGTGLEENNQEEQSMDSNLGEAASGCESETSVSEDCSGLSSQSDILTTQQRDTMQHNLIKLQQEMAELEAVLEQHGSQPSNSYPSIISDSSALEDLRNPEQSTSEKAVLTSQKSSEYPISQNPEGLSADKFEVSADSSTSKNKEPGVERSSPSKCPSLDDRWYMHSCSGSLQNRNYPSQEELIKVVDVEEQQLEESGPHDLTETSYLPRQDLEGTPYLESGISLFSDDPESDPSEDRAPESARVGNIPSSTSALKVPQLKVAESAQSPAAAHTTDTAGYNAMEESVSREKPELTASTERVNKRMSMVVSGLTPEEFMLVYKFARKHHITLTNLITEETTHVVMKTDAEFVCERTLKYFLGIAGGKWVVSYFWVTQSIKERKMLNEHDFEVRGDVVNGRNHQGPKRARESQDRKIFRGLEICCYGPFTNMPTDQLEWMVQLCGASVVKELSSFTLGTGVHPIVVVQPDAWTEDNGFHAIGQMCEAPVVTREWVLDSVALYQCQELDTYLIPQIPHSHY
UniProt P13010: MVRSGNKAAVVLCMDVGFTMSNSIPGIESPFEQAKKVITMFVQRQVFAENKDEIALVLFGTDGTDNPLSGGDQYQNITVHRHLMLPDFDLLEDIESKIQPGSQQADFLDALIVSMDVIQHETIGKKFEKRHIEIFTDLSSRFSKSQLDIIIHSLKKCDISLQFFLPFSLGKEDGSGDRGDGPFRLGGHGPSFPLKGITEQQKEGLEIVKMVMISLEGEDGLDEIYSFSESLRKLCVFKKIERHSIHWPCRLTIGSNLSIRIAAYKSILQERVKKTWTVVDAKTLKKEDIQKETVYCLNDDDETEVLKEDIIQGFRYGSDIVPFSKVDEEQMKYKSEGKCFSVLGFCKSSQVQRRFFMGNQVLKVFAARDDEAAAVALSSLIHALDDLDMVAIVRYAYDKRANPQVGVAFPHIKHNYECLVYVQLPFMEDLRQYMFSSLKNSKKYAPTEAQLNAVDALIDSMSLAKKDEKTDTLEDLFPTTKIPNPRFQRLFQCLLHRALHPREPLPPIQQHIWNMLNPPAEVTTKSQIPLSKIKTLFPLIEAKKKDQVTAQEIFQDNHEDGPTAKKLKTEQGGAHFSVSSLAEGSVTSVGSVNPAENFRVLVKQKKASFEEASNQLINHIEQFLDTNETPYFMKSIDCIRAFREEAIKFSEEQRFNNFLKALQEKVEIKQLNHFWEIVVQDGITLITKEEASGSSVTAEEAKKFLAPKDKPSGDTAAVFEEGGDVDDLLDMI

Test [1] concerns the target Senataxin (human (endogenous in U2OS)) (UniProt Q7Z333).
The target in test [2] is BRCA1 (human (endogenous in U2OS)) (UniProt P38398).
For test [3], the target named is ADAR2 (human (endogenous in U2OS)) (UniProt P78563).

These are yes or no findings as the source states them, for the method shown. In cells and extracts the contact can be indirect. Some entries that bind do so weakly or less than the wild type.

With “ADAR2 (from UniProt P78563 1-741) (enzyme)”, the binding entry in test [1] and in test [2] was “binds” throughout.
As to Ku80 (from UniProt P13010 1-732), the binding entry in test [3] is reported as “no binding”.
As for “Senataxin (from UniProt Q7Z333 1-2677) (enzyme)”, the binding result in test [3] and in test [2] was “binds” each time.

B1: ADAR1 (enzyme, UniProt P55265 1-1226)
chain: MNPRQGYSLSGYYTHPFQGYEHRQLRYQQPGPGSSPSSFLLKQIEFLKGQLPEAPVIGKQTPSLPPSLPGLRPRFPVLLASSTRGRQVDIRGVPRGVHLRSQGLQRGFQHPSPRGRSLPQRGVDCLSSHFQELSIYQDQEQRILKFLEELGEGKATTAHDLSGKLGTPKKEINRVLYSLAKKGKLQKEAGTPPLWKIAVSTQAWNQHSGVVRPDGHSQGAPNSDPSLEPEDRNSTSVSEDLLEPFIAVSAQAWNQHSGVVRPDSHSQGSPNSDPGLEPEDSNSTSALEDPLEFLDMAEIKEKICDYLFNVSDSSALNLAKNIGLTKARDINAVLIDMERQGDVYRQGTTPPIWHLTDKKRERMQIKRNTNSVPETAPAAIPETKRNAEFLTCNIPTSNASNNMVTTEKVENGQEPVIKLENRQEARPEPARLKPPVHYNGPSKAGYVDFENGQWATDDIPDDLNSIRAAPGEFRAIMEMPSFYSHGLPRCSPYKKLTECQLKNPISGLLEYAQFASQTCEFNMIEQSGPPHEPRFKFQVVINGREFPPAEAGSKKVAKQDAAMKAMTILLEEAKAKDSGKSEESSHYSTEKESEKTAESQTPTPSATSFFSGKSPVTTLLECMHKLGNSCEFRLLSKEGPAHEPKFQYCVAVGAQTFPSVSAPSKKVAKQMAAEEAMKALHGEATNSMASDNQPEGMISESLDNLESMMPNKVRKIGELVRYLNTNPVGGLLEYARSHGFAAEFKLVDQSGPPHEPKFVYQAKVGGRWFPAVCAHSKKQGKQEAADAALRVLIGENEKAERMGFTEVTPVTGASLRRTMLLLSRSPEAQPKTLPLTGSTFHDQIAMLSHRCFNTLTNSFQPSLLGRKILAAIIMKKDSEDMGVVVSLGTGNRCVKGDSLSLKGETVNDCHAEIISRRGFIRFLYSELMKYNSQTAKDSIFEPAKGGEKLQIKKTVSFHLYISTAPCGDGALFDKSCSDRAMESTESRHYPVFENPKQGKLRTKVENGEGTIPVESSDIVPTWDGIRLGERLRTMSCSDKILRWNVLGLQGALLTHFLQPIYLKSVTLGYLFSQGHLTRAICCRVTRDGSAFEDGLRHPFIVNHPKVGRVSIYDSKRQSGKTKETSVNWCLADGYDLEILDGTRGTVDGPRNELSRVSKKNIFLLFKKLCSFRYRRDLLRLSYGEAKKAARDYETAKNYFKKGLKDMGYGNWISKPQEEKNFYLCPV
As for B1, in test [2], the binding entry was “binds”.

(Values after paper PMC8448848.)
